Laboratory results taken from patent US20230192896A1 (published 2023).

Molecular target: T1, FX zymogen (UniProt P00742 41-179; P00742 183-488)
T1 chain 1: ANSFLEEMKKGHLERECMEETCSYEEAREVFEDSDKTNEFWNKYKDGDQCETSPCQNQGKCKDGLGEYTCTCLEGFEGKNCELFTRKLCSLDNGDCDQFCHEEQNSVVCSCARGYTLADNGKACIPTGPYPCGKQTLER
T1 chain 2: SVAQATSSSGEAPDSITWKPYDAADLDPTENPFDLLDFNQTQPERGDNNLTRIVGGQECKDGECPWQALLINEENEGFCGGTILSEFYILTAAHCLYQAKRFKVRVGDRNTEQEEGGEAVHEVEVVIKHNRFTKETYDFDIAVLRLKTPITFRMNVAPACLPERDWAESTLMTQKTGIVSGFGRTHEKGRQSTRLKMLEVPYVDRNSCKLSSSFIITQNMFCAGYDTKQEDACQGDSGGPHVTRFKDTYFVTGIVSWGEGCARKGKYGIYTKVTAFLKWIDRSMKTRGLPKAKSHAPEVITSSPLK
Experiment: BLI

B1: BIIB-12-1334 (antibody, V domains shown)
VH: QVQLVESGGGVVQPGRSLRLSCAASGFTFSSYGMHWVRQAPGKGLEWVAVISYDGSNKYYADSVKGRFTISRDNSKNTLYLQMNSLRAEDTAVYYCARVPRKQTGHVDYWGQGTLVTVSS
VL: [here about 100 residues without letters]IGTPWTFGGGTKVEIK
Binder B1 has a Kd of 18.8 nM.
